# Results from PubChem BioAssay AID488969 (Vanderbilt High Throughput Screening Facility, 2010).
# The full ranking holds about 110,000 compounds; the median of “z-score” is about -0.1, and the highest 2% start at about 2. Some of the results follow. Active and inactive are the calls of the source.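 The calls were made as follows: active = z-score in the third read window above 3 or below -3; inactive = the rest.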
# Target: Metabotropic glutamate receptor 8 (Rattus norvegicus) (UniProt P70579)
# Assay: mGluR8 Gi/Go-coupled signaling modulation – cell-based, rat, thallium flux, HTS, primary screen (AID 488969)
# Details: HEK293 rat mGluR8, GIRK (G protein-gated inwardly rectifying potassium channel) thallium flux, FluoZin2; at 10 µM; stronger effect = higher value; submaximal glutamate (EC20) added with thallium
# Chain of UniProt P70579 (P70579 whole entry, looked up): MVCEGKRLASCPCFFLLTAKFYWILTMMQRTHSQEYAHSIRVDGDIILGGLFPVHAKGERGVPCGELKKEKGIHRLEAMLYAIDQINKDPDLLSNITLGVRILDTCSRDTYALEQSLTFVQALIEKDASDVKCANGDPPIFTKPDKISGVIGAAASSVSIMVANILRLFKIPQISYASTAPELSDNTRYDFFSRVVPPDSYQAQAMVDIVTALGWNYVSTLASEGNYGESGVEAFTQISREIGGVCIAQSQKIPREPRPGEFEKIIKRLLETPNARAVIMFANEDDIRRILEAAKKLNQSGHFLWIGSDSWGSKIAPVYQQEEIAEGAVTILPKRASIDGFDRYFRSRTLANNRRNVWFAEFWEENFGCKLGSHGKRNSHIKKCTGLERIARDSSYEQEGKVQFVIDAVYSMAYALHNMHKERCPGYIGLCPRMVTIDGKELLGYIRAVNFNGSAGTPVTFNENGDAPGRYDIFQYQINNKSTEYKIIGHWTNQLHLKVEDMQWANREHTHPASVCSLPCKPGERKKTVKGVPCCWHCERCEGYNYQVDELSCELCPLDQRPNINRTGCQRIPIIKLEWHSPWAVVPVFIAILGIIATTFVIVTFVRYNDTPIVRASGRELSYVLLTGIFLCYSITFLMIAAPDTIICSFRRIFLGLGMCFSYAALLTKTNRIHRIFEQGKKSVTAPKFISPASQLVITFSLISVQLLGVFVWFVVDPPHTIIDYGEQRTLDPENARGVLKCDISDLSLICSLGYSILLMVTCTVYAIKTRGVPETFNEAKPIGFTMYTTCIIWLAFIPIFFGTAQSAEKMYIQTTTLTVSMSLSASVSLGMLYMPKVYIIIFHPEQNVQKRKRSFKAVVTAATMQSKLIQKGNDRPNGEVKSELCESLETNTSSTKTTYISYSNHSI
row,SMILES,z-score
1,COc1ccc(/C=N/Nc2nc(-c3ccc(Cl)cc3)cc(C(F)(F)F)n2)c(OC)c1,-0.127
2,Cc1cc(SCC(=O)N/N=C/c2ccc(O)c(O)c2O)c(C)cc1Br,-0.402
3,COc1nn(-c2nc(-c3ccccc3)cc(C(F)(F)F)n2)cc1[N+](=O)[O-],-0.018
4,Cc1ccc(-c2nc(C#N)c(N3CCCCC3)o2)cc1,0.553
5,Cc1ccc(OC(=S)Nc2ccc(F)cc2)cc1,0.0616
6,Cc1cc(C)c(S(=O)(=O)N2CCC(C(=O)NCc3ccco3)CC2)c(C)c1,0.126
7,CCOC(=O)Cn1c(=O)oc2cc(S(=O)(=O)N3CCn4c3nc3ccccc34)ccc21,-0.511
8,O=C(CCCc1ccccc1)NCCCN1CCOCC1,-0.391
9,Cc1ccc(NC(=S)NNC(=O)c2cn(C)nc2C)cc1,0.188
10,CO/N=C\Cc1oc(=O)c(NC(=O)c2ccccc2)cc1C(=O)OC,0.0797
11,O=C(Cc1c(F)cccc1Cl)Nc1ccon1,0.178
12,COCCn1c(SCc2nc3cc(OC)c(OC)cc3c(=O)[nH]2)nnc1-c1ccncc1,0.216
13,CCCCc1nnc(SCCSc2nnc(CCCC)n2N)n1N,0.0292
14,O=C(c1noc2c1CCc1ccccc1-2)N1CCOCC1,-0.0455
15,CC(C)(C)NC(=O)c1ccc(COCC(F)(F)F)o1,-0.00271
16,COc1ccccc1NC(=O)c1ccccc1NS(=O)(=O)N1CCCC1,0.14
17,CCCCSc1nc2c(c(C(F)(F)F)c1C#N)CCC2,-0.216
18,CCOc1cc(CNc2ccc3c(c2)CCC3)ccc1O,0.557
19,Cc1ccc(C(=O)Nc2sc(C)c(-c3ccccc3)c2C(N)=O)cc1[N+](=O)[O-],-0.0229
20,O=C(NCCN1C(=O)S/C(=C\c2cccs2)C1=O)c1ccc(=O)[nH]c1,-0.18
21,COc1ccc2c(Cl)c(C(=O)N/N=C/c3c(C)[nH]c4ccccc34)sc2c1,-0.0415
22,COc1ccc(CNC(=O)c2noc3c2CCCC3)cc1,0.719

row,SMILES,z-score
1,COc1cccc(C2Nc3ccccc3C(=O)N2O)c1O (centres undefined),0.356
2,CC(=O)c1ccc(N2C(=O)[C@@H]3C(CCC(N)=O)NC4(C(=O)Nc5c4ccc(Cl)c5C)[C@@H]3C2=O)cc1 (some centres undefined),-0.21
3,CCOC(=O)c1c(-n2cccc2)sc2c1CCCC2=O,-0.189
4,COc1ccc(C(=O)Cc2cc(OC)c(OC)cc2[N+](=O)[O-])c(OC)c1,-0.225
5,COc1cc(NC(C(=O)Nc2cccc(C(C)=O)c2)c2ccccc2)cc(OC)c1OC (centres undefined),0.756
6,CC(C)(C)n1nnnc1C(c1cccnc1)N1CCN(C2CCCCC2)CC1 (centres undefined),-0.342
7,CC(=O)Nc1c(O)nc(SCC(=O)Nc2nnc(CC(C)C)s2)[nH]c1=O,0.707
8,COCCNC(=O)c1onc(CCl)c1C(=O)OC,-0.0292
9,CCOC(=O)C1=C(C)OC(N)=C(C#N)C1c1cc(Cl)c(OCC(N)=O)c(OC)c1 (centres undefined),-0.0226
10,CCNC(=S)NNC(=O)c1cc(-c2ccccc2C)nc2ccccc12,-0.0901
11,Cn1nc(C(=O)N2CCc3ccccc3C2)c2ccccc2c1=O,0.303
12,COc1ccc(S(=O)(=O)NCc2ccccn2)cc1,-0.0108
13,COc1ccccc1CNC(=O)C1CCN(S(=O)(=O)c2ccc3c(c2)OCCCO3)CC1,0.126
14,O=C(NC1CCCC1)C(c1ccc(F)cc1)N(C(=O)Cc1cccs1)c1ccc2c(c1)OCCO2 (centres undefined),-0.106
15,COc1cccc(CNC(=O)C2CCN(S(=O)(=O)c3ccc4c(c3)CCC(=O)N4)CC2)c1,-0.153
16,COc1ccc(C(C)=O)cc1CSCCC#N,0.06
17,COc1cc(C(=O)N2CCC(NC(=O)C(Cc3ccc(C)cc3)NC(C)=O)CC2)cc(OC)c1OC (centres undefined),0.166
18,COC(=O)C1C(c2ccc(Cl)cc2)NC(c2ccc(Cl)cc2)C(C(=O)OC)S1(=O)=O (centres undefined),-0.0837
19,CCOc1ccccc1NC(=O)C1Cc2ccccc2CN1S(C)(=O)=O (centres undefined),-1.31
20,COc1ccccc1CNC(=O)CCn1c(=O)oc2ccccc21,-0.208
21,COC(=O)C1CCN(C(=O)C23CCC(C)(C(=O)O2)C3(C)C)CC1 (centres undefined),0.293
22,COC(=O)c1cc(NC(=O)c2nccnc2C(=O)O)cc(C(=O)OC)c1,1.91

row,SMILES,z-score
1,COc1ccc(N2C(=O)C3CCCN3C2c2cccc(Br)c2)cc1 (centres undefined),0.243
2,CCCNC(=O)c1cc(C)no1,-0.107
3,O=C(O)CNS(=O)(=O)c1cccc2nsnc12,0.0928
4,CCn1c(/C=N/Nc2ccc(C(=O)O)cc2)nc2ccccc21,-0.629
5,Brc1ccc2c(c1)OCCOCCOCCOCCOCCO2,-0.299
6,COc1ccc(-c2cc(C(=O)N3CCOCC3)c3cc(C)ccc3n2)cc1,0.148
7,O=C(N1CCOCC1)N1c2ccccc2Sc2ccccc21,-0.454
8,O=C(Cn1cnc2ccccc2c1=O)NCCC(=O)Nc1ccc2c(c1)OCCO2,-0.00198
9,O=S(=O)(Nc1ccc(O)cc1)c1cccc2cccnc12,-0.332
10,COc1cc(C)c(S(=O)(=O)n2ccc(C)n2)cc1C,-0.144
11,O=C(CSc1n[nH]c(-c2ccc(S(=O)(=O)NC3CCCCC3)cc2)n1)N1CCCC1,-0.42
12,COc1cc(Cn2ccnc2)c(OC)cc1Cn1ccnc1,-0.198
13,Cc1ccoc1C(=O)Nc1cccc(Oc2ccccc2)c1,-1.42
14,O=C(c1ccc(COc2ccccc2Cl)o1)N1CCN(c2ccccc2)CC1,-0.0947
15,CCCCc1ccc(NS(=O)(=O)c2cccs2)cc1,0.186
16,CCOc1cc(C(c2c(C)[nH][nH]c2=O)c2c(C)[nH][nH]c2=O)ccc1OC(=O)c1cccc([N+](=O)[O-])c1,0.129
17,CC(=O)c1cc(F)c(N2CCN(C(=O)COc3ccccc3F)CC2)cc1C,0.44
18,COc1ccccc1-n1c(C)c2c(OC)cccc(=O)c2c1C,-0.777
19,Cn1cc(CCC(=O)NCc2ccc3c(c2)OCO3)c2ccccc21,active: 3.75
20,Cc1ccc(-c2ccc(/C=N/c3ncn[nH]3)o2)cc1Cl,-0.497
21,CCC(=O)OCCNc1cc(Sc2nc3ccccc3s2)c2nonc2c1[N+](=O)[O-],-0.434
22,O=C(/C=C/c1ccc2c(c1)OCO2)NCc1ccc(F)cc1,-0.449

row,SMILES,z-score
1,COc1ccc(OCC(=O)O/N=C(\N)c2ccc(OC)c(OC)c2)cc1,0.0106
2,CC(Oc1ccccc1)C(=O)Nc1ccc(S(=O)(=O)NCC2CCCO2)cc1 (centres undefined),-0.0181
3,Cc1ccccc1NC(=O)Cc1c(O)c2ccccc2[nH]c1=O,-0.121
4,CCc1ccccc1NC(=S)N(CCN(C)C)C(C)c1ccccn1 (centres undefined),0.158
5,Cc1ccc(CN(c2ccc(C(=O)N3CCc4ccccc4C3)cc2)S(C)(=O)=O)cc1,-0.35
6,N#Cc1c(NC(=O)CSc2nnc(-c3ccco3)n2-c2ccccc2)sc2c1CCC2,-0.148
7,Clc1ccc(CSc2ncnc3nc[nH]c23)cc1,-0.0267
8,CCC(CC)C(=O)Nc1cccc(C(=O)N2CCCC2)c1,-1.16
9,Cc1ccc(NC(=O)N2CCC(O)(c3cccnc3)CC2)cc1,-0.16
10,Cc1cc(=O)oc2cc(OCC3CC(c4ccccc4Cl)=NO3)ccc12 (centres undefined),-0.31
11,CN1CCN(C(c2ccccc2)c2nnnn2Cc2ccccc2)CC1 (centres undefined),0.132
12,COC(=O)Cn1c(=NC(=O)CN2C(=O)CCC2=O)sc2cc(S(N)(=O)=O)ccc21,-0.289
13,CCOC(=O)C1=C(C)NC(=O)C(C#N)C1c1ccncc1 (centres undefined),-0.0805
14,COc1cc(C2NC(=O)N(C)C3=C2C(=O)CCC3)cc(OC)c1OC (centres undefined),-0.583
15,CCn1c(CNC(=O)c2ccco2)nnc1SCC(=O)Nc1ccc(Br)cc1F,1.31
16,COc1ccc(C(=O)Cc2nnc(C)s2)c(OC)c1,0.109
17,O=C(CN1CCN(c2ccccn2)CC1)NC1CCCCC1,0.13
18,Cn1nc(-c2ccccc2)c(-c2nc(-c3ccccc3Cl)no2)c1Cl,0.0797
19,COc1ccc(C)cc1NC(=O)Nc1ccc(Br)cn1,0.233
20,CCOc1ccc(/C=C2\C(=O)c3ccccc3OC2c2ccccc2)cc1 (centres undefined),0.144
21,C/C(N)=C(/C#N)C(=O)CSc1nnnn1-c1ccccc1,-0.0649
22,Cc1ccc(Cl)cc1N1CCN(CC(=O)Nc2ccc(CN3CCCCC3)cc2)CC1,0.558

row,SMILES,z-score
1,CC(C)[C@H](N)c1nnc(SCC(=O)c2ccc(Cl)cc2)o1,0.307
2,CCOC(=O)CN(C(=O)Cn1nnc2ccccc21)C(C(=O)NCCOC)c1ccccc1C (centres undefined),-0.3
3,Cc1ccccc1OCCNc1cc(N2CCN(CCO)CC2)ccc1[N+](=O)[O-],-0.092
4,CC(C)OC(=O)NC(C)(C)COC(=O)Nc1cccc(Cl)c1,-0.698
5,Cc1ccc(C2c3sc(=O)[nH]c3SC3C4CC(C5C(=O)N(C(C)C(=O)O)C(=O)C45)C23)cc1 (centres undefined),-0.0374
6,CCOc1cc(C(=O)O)cc(Cl)c1OC,-0.0582
7,Cc1ccc2nc3nc(NCC4CCCO4)c(C(=O)NC4CCCC4)cc3c(=O)n2c1 (centres undefined),-0.396
8,Cc1cc(SCCOc2ccc(Br)cc2)nc(N)n1,0.361
9,CCCc1nn(-c2cc(Cl)ccc2OC)c2c1C(=O)CC(C)(C)C2,-1.14
10,CCSc1nnc(NC(=O)CSc2nc3c(c(=O)n2C)SC(C)C3)s1 (centres undefined),-2.02
11,C/C(=C\C(=O)c1ccc(Br)cc1)NCc1ccc(C)cc1,-0.364
12,Cc1cc(C(=O)COC(=O)c2ccc[nH]c2=O)c(C)n1-c1ccc(Br)cc1,-0.0786
13,COc1ccc(O)c(C(=O)c2cc(C#N)c(=O)n(-c3c(C)n(C)n(-c4ccccc4)c3=O)c2)c1,-0.346
14,COC(=O)c1c(NC(=O)c2ccc(S(=O)(=O)N3CCOCC3)cc2)sc2c1CCN(C)C2,-0.223
15,COCCNC(=O)CNC(=S)N(Cc1ccccc1)Cc1cccnc1,0.192
16,O=C(O)c1cc(-c2ccncc2)nc2ccc(F)cc12,-0.321
17,CCn1c(-c2nonc2NC(=O)c2ccccc2)nc2ccccc21,-0.103
18,CC(C)CCNC(=O)CN(C(=O)Cn1nnc(-c2ccccc2F)n1)c1cccc2c1CCCC2,-0.335
19,COc1ccc(-c2csc(-c3cc4ccccc4oc3=N)n2)cc1,-0.00953
20,CCCCn1c(=NC(=O)c2cccnc2)c(C(=O)OCC)cc2c(=O)n3ccccc3nc21,-0.521
21,Cc1nn(CC(=O)Nc2ccc(Cl)cn2)c(C)c1[N+](=O)[O-],0.145
